Data published in the supplement of paper PMC4604168 (melanoma cell lines).
This is one part of the list. Many values rest on one well or one pass, so single values are uncertain.

Test system: UACC257
Assay: cell count relative to DMSO control; melanoma cells; higher = more viable cells
Details: library dose: standard library concentration; 72 h
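Note: cells treated in 1,536-well plates, then fixed and DAPI-stained, with nuclei counted from automated high-throughput microscope images.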

Row | Compound | cell count
1 | CC1(C)CCC(c2ccc(Cl)cc2)=C(CN2CCN(c3ccc(C(=O)NS(=O)(=O)c4ccc(N[C@H](CCN5CCOCC5)CSc5ccccc5)c(S(=O)(=O)C(F)(F)F)c4)cc3)CC2)C1 + Cc1cc([N+](=O)[O-])ccc1NS(=O)(=O)c1cc(Cl)ccc1Cl [FH535] (first compound 2 µM, partner dose 5 µM) | 34.5%
2 | O=C(/C=C/c1cccnc1)NCCCCC1CCN(C(=O)c2ccccc2)CC1 + CCc1ccc(CCOc2ccc(CC3SC(=O)NC3=O)cc2)nc1 [pioglitazone] (first compound 0.05 µM, partner dose 10 µM) | 98.4%
3 | Cc1ccc(Nc2nccc(N(C)c3ccc4c(C)n(C)nc4c3)n2)cc1S(N)(=O)=O [Pazopanib] + COc1cc(N2CCC(N3CCN(C)CC3)CC2)ccc1Nc1ncc(Cl)c(Nc2ccccc2S(=O)(=O)C(C)C)n1 [NVP-TAE684] (first compound 2 µM, partner dose 0.4 µM) | 80.1%
4 | O=C(/C=C/c1cccnc1)NCCCCC1CCN(C(=O)c2ccccc2)CC1 + COc1ccc(-c2ccc3c(N4CCOCC4)nc(N4C[C@@H](C)O[C@@H](C)C4)nc3n2)cc1CO [KU0063794] (first compound 0.05 µM, partner dose 0.1 µM) | 92.3%
5 | Cc1ccc(Nc2nccc(N(C)c3ccc4c(C)n(C)nc4c3)n2)cc1S(N)(=O)=O [Pazopanib] + CCN(CC)CCCCNc1ncc2cc(-c3cc(OC)cc(OC)c3)c(NC(=O)NC(C)(C)C)nc2n1 [PD173074] (first compound 2 µM, partner dose 0.5 µM) | 87.6%
